This note sets out measurements from PMC10726135.

The list shows a part of the results. At the low end of the ranking the order means little. The protein was read in a cell extract, so binding may be indirect.

In the assay the target is T1, HNF4alpha8 (COS-7 nuclear extract) (UniProt P41235-5).
T1 sequence: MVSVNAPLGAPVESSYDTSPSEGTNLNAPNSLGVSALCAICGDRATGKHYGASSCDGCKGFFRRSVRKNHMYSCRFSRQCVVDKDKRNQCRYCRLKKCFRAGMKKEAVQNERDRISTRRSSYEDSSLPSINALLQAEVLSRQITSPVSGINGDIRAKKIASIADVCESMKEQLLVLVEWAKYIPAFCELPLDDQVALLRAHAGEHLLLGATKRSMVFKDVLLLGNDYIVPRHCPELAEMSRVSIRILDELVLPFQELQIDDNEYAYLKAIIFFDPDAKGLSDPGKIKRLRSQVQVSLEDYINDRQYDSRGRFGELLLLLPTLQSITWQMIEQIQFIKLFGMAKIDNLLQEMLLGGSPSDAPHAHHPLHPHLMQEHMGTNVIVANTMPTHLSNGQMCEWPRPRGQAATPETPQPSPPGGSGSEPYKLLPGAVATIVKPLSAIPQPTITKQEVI
Put plainly: protein-binding microarray. Conditions: COS-7 nuclear extract on double-stranded Agilent 4x180k PBM; binding buffer, salt, pH and temperature not given; high values mean tight binding; double strand, one strand shown; sequences stand for … in …GCCTAGGGAGATTAGAGTATCGGTCGA
Regarding ACTCCAACTCAGCCCCCAGCATTATGAAAT, the binding signal (log2 normalized intensity) turned out to be 5.05.

Turning to GTCACGTGGCTGCTGAGAGGATTAAAAGAT, the binding signal (log2 normalized intensity) was -1.29. With GTAACAGGCCAAAGGGCAAGAACAATCTTG, the binding signal (log2 normalized intensity) came to 2.83. As to CTTTGAAGCCCAGAACACTCTACCCCCTCC, the binding signal (log2 normalized intensity) was 4.95. For TCAAAGAATGCCTGGGTCAAATTGGTGCTT the value was 1.01; for GCTGCTCAGCTGCCTAGAGGCCTGGGAATG, -1.21; for TTTTCTAGCTGAGTTGACCTGTGTTGACAG, 3.38. Under ACTCAGGAAAGATCAGCTGAAAACTATGCA stands -1.33; under AAACCAGCAGTATCTTTGTGTCACCAATGG, 0.739; under ACTTAGGGTTCAAAGGTTGTTGAGCACACA, 5.57. ATACCTAGCTGTTTGCAGGGACAATGGATG: the binding signal (log2 normalized intensity) was -0.0318. For the sequence GGAGGGGGCGGTTAAACATTCAGATTCCTG, the binding signal (log2 normalized intensity) is -1.32. Take GAATGCCTGGGTCAAATTGGTGCTTTCATC: the binding signal (log2 normalized intensity) is 0.56. TTGTATGGTTTTGTGCTAGAAAGAATGAGA: the binding signal (log2 normalized intensity) was 1.25. As to CCACAAAGTCTTAGCTCATTTCAGCCTTAA, the binding signal (log2 normalized intensity) is -0.902. Under CCCCTTTTAATACAAGTATTATCTTCCATT stands 0.547. For ATGCCGGCGTGACCCCCACTGCCTGCCTGC the value was 4.1; for GCCAAAGTTCAACCATACACACATTCCAAT, 1.03; for GCTAATCCTACTTTATCTAAGTAAACTAGT, -0.793. Under GCCCTAGGAATCCTGACCAGGGGCCAGCAA stands -1.26; under GTCCCACCTGAGGCCAAGCAGCTGTGATGA, -0.794; under CGGCTGAGCGGCCTTCGCACCTGCCTGTCT, 0.936. As for TCCTTTTTGGCCAGCCCCGGGAATTCTGGG, the binding signal (log2 normalized intensity) was -1.44. Under GAGGCTTATTCCGTACAAGGATTCATTTCC stands -1.28; under CCGCACAGTGCAAACACACAATATTGACAT, -1.26; under GAGATCAGAGGAGGCACTTGTCTCACATCT, -1.14. For AGGCATTTCTGGAATTCTCTTCCCAACAGG the value was -1.27.

Consider GGCTAATTACATCCAGAGTGGGACAAAGTT, for which the binding signal (log2 normalized intensity) is -0.0774. For GGGTCATTAATTCCCAGGAATTGGCCTGTG the value was 0.7; for TGGAAGAAGCGGTTCTGCAGGTTCATGGGA, 1.02. Under ACCACTCTTTCAGGGTGGGAAAGGAATGTA stands -1.15; under CTTTGAACCAGATGGCCCTCTCCAAGGCGG, -1.27. Take AAAAAAAAAAAAAAGGCAGTCCTTAGATCC: the binding signal (log2 normalized intensity) is -1.34. As to TTTCCAGTTAGGCAGGATGGGGTCATGATA, the binding signal (log2 normalized intensity) is 3.09. For CCCAAGTAGAGAGCAGTCCTGCACATGAAT the value was -1.54; for AGACAGGAGTAGTCAAATTTGTCTAGCGCA, -1.26; for CTTTCATGCCGGCGTGACCCCCACTGCCTG, 4.74. ATTGCAGACAGCATAGGAAGTGGGGAAGAA: the binding signal (log2 normalized intensity) is -1.34. Consider TTTTAATTAGAACTGTAATTGAGTAACCAG, for which the binding signal (log2 normalized intensity) stood at 0.406. For the sequence GAACTTTGATCAGCATTCAAATGAGGGCAG, the binding signal (log2 normalized intensity) came to 3.89.

On to CCTGTGGCCACAGAGCGCCTAACTATTTTG, for which the binding signal (log2 normalized intensity) is -1.36. For GATCACCTGGTGGCCATCAAGCAGATCATC, the binding signal (log2 normalized intensity) is -1.37. For TTTCTTTCTTTTCCCAAACCACGTTTCTGT, the binding signal (log2 normalized intensity) amounted to 1.02.

CCTGGGAATGCCTAGGGGGAAGCCCCTGCT: the binding signal (log2 normalized intensity) is -1.49. Under CCAAGAGCTTAACCTTTGCCATGTGACAAT stands 2.73. As for AGATTACAGCCACATGCTAACACACCTGGC, the binding signal (log2 normalized intensity) is -1.35. For CACTCATGGTGTTTGCTTTGTGAAGGCTTA the value was 0.417; for GTCTCTTCCACCTGGAATGCACTTGTTCCG, 0.812.

With CTCCTGCAGACCCTATTGGGCTAGCCGCTC, the binding signal (log2 normalized intensity) is -1.36. In the case of TCTTACTGTGTTGTCGTATTTACTCTAGAA, the binding signal (log2 normalized intensity) is 1.21. Under AAGTCTGTTTATCCTGCCTCCATTAATTAA stands 0.448. GCCTCCCCCTTCTGAGTCTCCAATGTCCAT: the binding signal (log2 normalized intensity) was found to be 2.63. Under AAGGTTAGGGGGATTCTGGCTAAACCAGCC stands -1.43. Under CCTGTCAGTCTCTCAATGATTGACAGGTTA stands 0.739.

Take CAGGAATATCAACAGGAGCAAATATCGCTT: the binding signal (log2 normalized intensity) was -1.3. For GGCTGGGGCCCTCTTCCAGCTGAGACAAGG the value was -1.35. For GTATATCCTGACACAGGAAGGGGGATGTCT the value was -1.17; for CTTATCATGCTGTCTCTGAAAGCAAACAAT, -1.21. For AGGAGCAGGAGCAGAAGCAGGCCTCGGGCC, the binding signal (log2 normalized intensity) is -1.29. Under GCCAAGGGCAGTGTTTGCCCAGCTTGAATC stands -0.771.

For the sequence CGGGCACTGATAACGCCCGCCTAACCTTGA, the binding signal (log2 normalized intensity) is -1.2. Under GGGAATGTGGGTCCACATTCCTGATGCTAG stands 0.702. As for CAGCTTATCTGTCCATCCCTCACTCCTGTC, the binding signal (log2 normalized intensity) is -0.642. For the sequence TCCAACCCACAGGGGTAGAAGCTGAGCAGC, the binding signal (log2 normalized intensity) is -1.3. As for TGCTTGTGTTGGAGCATTAGTTGACCATTG, the binding signal (log2 normalized intensity) came out at 2.21. Consider CAAACTATAGATTTGTGATGAGAATAAATT, for which the binding signal (log2 normalized intensity) worked out at 0.644. Under CTTAGGGAGGGTGAAGGTCACAATTTCCAG stands 3.2; under ACTGAGGCTCAATGAGGTCAATAGTCCAGA, 5.04.

Turning to CTTATCAGCAGCTGGGGTGACTGATTGGAG, the binding signal (log2 normalized intensity) turned out to be 0.845. Regarding CTAGCAAAAATCCTGCCAAACCAGTTCAAC, the binding signal (log2 normalized intensity) is -1.39.

With TTACTCACCTGATTCAATGTCTGGAAGTTC, the binding signal (log2 normalized intensity) worked out at 1.38.

Regarding ACACAGACAAAGACAGAGAGGCTTCCCTTT, the binding signal (log2 normalized intensity) is -1.35.
